Results from the supplement of paper PMC4967469.
A lower IC50 marks a more sensitive line; a fit beyond the top or the lowest dose is shown as a bound at that dose. AUC is the area under the same curve over the 256-fold range up to the top dose, as a fraction: 1 means no effect, lower means more sensitive. For some assays here: An inferred top dose comes from the curve model; the source does not state it.

Tests used:
Test in all cases: Viability of human cancer cell lines after 72 h of drug (GDSC screen)
Bexarotene = compound: C=C(c1ccc(C(=O)O)cc1)c1cc2c(cc1C)C(C)(C)CCC2(C)C [Bexarotene]; conditions: top dose 8 µM
Protocol: (§1)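 Human cancer cell lines in 384-well plates, medium with 10% serum, drug for 72 h over a 256-fold dose range (nine 2-fold or five 4-fold steps up to the top dose). Adherent lines were fixed and stained with the nucleic acid dye Syto60, suspension lines read with resazurin; signal relative to control wells, capped at 0 and 100%. One two-parameter sigmoid per drug and line, fitted in a mixed model over all curves with the slope shared within a line.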

NPK76-II-72-1 = compound: COc1cc(C(=O)NC2CCN(C)CC2)ccc1Nc1ncc2c(n1)N(C1CCCC1)C(C)CC(=O)N2C [NPK76-II-72-1]; conditions: top dose 10.24 µM; top dose inferred
Protocol: as §1

Etoposide = compound: COc1cc([C@@H]2c3cc4c(cc3[C@@H](O[C@@H]3O[C@@H]5CO[C@@H](C)O[C@H]5[C@H](O)[C@H]3O)[C@H]3COC(=O)[C@H]23)OCO4)cc(OC)c1O [Etoposide]; conditions: top dose 16 µM
Protocol: as §1

YK 4-279 = compound: COc1ccc(C(=O)CC2(O)C(=O)Nc3c(Cl)ccc(Cl)c32)cc1 [YK 4-279]; conditions: top dose 10 µM
Protocol: as §1

BMS-345541 = compound: Cc1ccc2nc(NCCN)c3ncc(C)n3c2c1 [BMS-345541]; conditions: top dose 16 µM
Protocol: as §1

AZD7762 = compound: NC(=O)Nc1cc(-c2cccc(F)c2)sc1C(=O)N[C@H]1CCCNC1 [AZD7762]; conditions: top dose 2 µM
Protocol: as §1

GSK-650394 = compound: O=C(O)c1ccc(-c2c[nH]c3ncc(-c4ccccc4)cc23)cc1C1CCCC1 [GSK-650394]; conditions: top dose 16 µM; top dose inferred
Protocol: as §1

XAV 939 = compound: Oc1nc(-c2ccc(C(F)(F)F)cc2)nc2c1CSCC2 [XAV 939]; conditions: top dose 5 µM; top dose inferred
Protocol: as §1

Cell Line	AUC (Bexarotene)	IC50 (Bexarotene)	AUC (NPK76-II-72-1)	IC50 (NPK76-II-72-1)	AUC (Etoposide)	IC50 (Etoposide)	AUC (YK 4-279)	IC50 (YK 4-279)	AUC (BMS-345541)	IC50 (BMS-345541)	AUC (AZD7762)	IC50 (AZD7762)	AUC (GSK-650394)	IC50 (GSK-650394)	AUC (XAV 939)	IC50 (XAV 939)
K2 (melanoma, adherent)	0.926	> 8 µM	0.945	> 10.2 µM	0.95	> 16 µM	0.64	1.71 µM	0.887	> 16 µM	0.716	0.622 µM	0.931	> 16 µM	0.98	> 5 µM
KARPAS-45 (lymphoblastic leukaemia, suspension)	0.976	> 8 µM	0.389	0.335 µM	0.933	> 16 µM	0.68	1.81 µM	0.491	0.947 µM	0.573	0.191 µM	0.833	8 µM	0.984	> 5 µM
KARPAS-299 (anaplastic large cell lymphoma, suspension)	0.983	> 8 µM	0.822	4.7 µM	0.735	4.05 µM	0.651	1.51 µM	0.668	2.68 µM	0.303	0.0392 µM	0.989	> 16 µM	0.982	> 5 µM
KARPAS-620 (haematopoietic neoplasm, suspension)	0.779	2.8 µM	0.433	0.433 µM	0.847	9.38 µM	0.83	5.08 µM	0.863	10.7 µM	0.668	0.34 µM	0.962	> 16 µM	0.985	> 5 µM
KCL-22 (chronic myeloid leukaemia, suspension)	0.906	7.81 µM	0.732	2.57 µM	0.743	4.31 µM	0.668	1.68 µM	0.856	9.69 µM	0.527	0.146 µM	0.831	7.99 µM	0.982	> 5 µM
KELLY (neuroblastoma, adherent)	0.978	> 8 µM	0.782	3.88 µM	0.794	6.6 µM	0.663	1.69 µM	0.841	9.71 µM	0.358	0.0528 µM	0.971	> 16 µM	0.986	> 5 µM
KGN (ovary, adherent)	0.852	> 8 µM	0.848	10.2 µM	0.355	0.362 µM	0.753	3.97 µM	0.865	> 16 µM	0.691	0.486 µM	0.853	> 16 µM	0.903	> 5 µM
KINGS-1 (glioma, adherent)	0.896	> 8 µM	0.947	> 10.2 µM	0.908	> 16 µM	0.811	8.01 µM	0.931	> 16 µM	0.815	1.67 µM	0.98	> 16 µM	0.97	> 5 µM
KLE (endometrium, adherent)	0.97	> 8 µM	0.93	> 10.2 µM	0.77	9.79 µM	0.847	> 10 µM	0.868	> 16 µM	0.805	1.79 µM	0.928	> 16 µM	0.93	> 5 µM
KM-H2 (Hodgkin lymphoma, suspension)	0.99	> 8 µM	0.791	3.84 µM	0.496	0.976 µM	0.754	2.91 µM	0.879	12.1 µM	0.855	–	0.97	> 16 µM	0.992	> 5 µM
KMH-2 (thyroid, adherent)	0.947	> 8 µM	0.99	> 10.2 µM	0.564	1.46 µM	0.638	1.43 µM	0.809	7.26 µM	0.652	0.313 µM	0.726	4.03 µM	0.988	> 5 µM
KMOE-2 (acute myeloid leukaemia, suspension)	0.952	> 8 µM	0.794	4.15 µM	0.725	3.99 µM	0.566	0.926 µM	0.734	4.24 µM	0.684	0.382 µM	0.928	> 16 µM	0.968	> 5 µM
KMRC-20 (kidney, adherent)	0.969	> 8 µM	0.984	> 10.2 µM	0.679	3.19 µM	0.875	> 10 µM	0.984	> 16 µM	0.633	0.292 µM	0.939	> 16 µM	0.979	> 5 µM
KNS-42 (glioma, adherent)	0.933	> 8 µM	0.874	> 10.2 µM	0.814	10.9 µM	0.765	4.34 µM	0.949	> 16 µM	0.953	> 2 µM	0.926	> 16 µM	0.961	> 5 µM
KNS-81-FD (glioma, adherent)	0.938	> 8 µM	0.977	> 10.2 µM	0.925	> 16 µM	0.816	8.24 µM	0.97	> 16 µM	0.893	> 2 µM	0.975	> 16 µM	0.904	> 5 µM
